According to PubChem BioAssay AID504332 (National Center for Advancing Translational Sciences (NCATS), 2011):
In all, about 350,000 compounds went through this assay and about 31,000 (8.9%) were called active. Inconclusive means that the source gave no clear call. Such entries were picked first, then a sample of the others. Calls follow the shape of the dose curve; as a rule, active = well fitted inhibition curve with a large enough effect; inconclusive = small, poorly fitted or top-dose-only effect; inactive = no such curve, though single readings can be large or run the other way. A potency beside an inconclusive call is a rough fit, not a confirmed value.

biological target: Histone-lysine N-methyltransferase EHMT2 (Homo sapiens) (UniProt Q96KQ7); test: qHTS Assay for Inhibitors of Histone Lysine Methyltransferase G9a; details: G9a H3K9 monomethylation, AlphaScreen, 2 h; activity, negative = inhibition: at 59 µM (top of the series) unless noted; also: nearly all actives have a fitted effect of over 75% in size
Method in brief: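 G9a (20 nM) was preincubated 15 min with compound, then reacted 2 h at room temperature with 500 nM biotin-H3K9 peptide and 20 µM SAM. Monomethyl-H3K9 detected by AlphaScreen using anti-H3K9me1 antibody.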
% is scaled to controls: 0 for no effect and ±100 for the full control effect; potency is read from the fitted curve at half-maximal effect; tags tell the direction and shape of the fitted curve.

Chain of UniProt Q96KQ7 (Q96KQ7 whole entry, looked up): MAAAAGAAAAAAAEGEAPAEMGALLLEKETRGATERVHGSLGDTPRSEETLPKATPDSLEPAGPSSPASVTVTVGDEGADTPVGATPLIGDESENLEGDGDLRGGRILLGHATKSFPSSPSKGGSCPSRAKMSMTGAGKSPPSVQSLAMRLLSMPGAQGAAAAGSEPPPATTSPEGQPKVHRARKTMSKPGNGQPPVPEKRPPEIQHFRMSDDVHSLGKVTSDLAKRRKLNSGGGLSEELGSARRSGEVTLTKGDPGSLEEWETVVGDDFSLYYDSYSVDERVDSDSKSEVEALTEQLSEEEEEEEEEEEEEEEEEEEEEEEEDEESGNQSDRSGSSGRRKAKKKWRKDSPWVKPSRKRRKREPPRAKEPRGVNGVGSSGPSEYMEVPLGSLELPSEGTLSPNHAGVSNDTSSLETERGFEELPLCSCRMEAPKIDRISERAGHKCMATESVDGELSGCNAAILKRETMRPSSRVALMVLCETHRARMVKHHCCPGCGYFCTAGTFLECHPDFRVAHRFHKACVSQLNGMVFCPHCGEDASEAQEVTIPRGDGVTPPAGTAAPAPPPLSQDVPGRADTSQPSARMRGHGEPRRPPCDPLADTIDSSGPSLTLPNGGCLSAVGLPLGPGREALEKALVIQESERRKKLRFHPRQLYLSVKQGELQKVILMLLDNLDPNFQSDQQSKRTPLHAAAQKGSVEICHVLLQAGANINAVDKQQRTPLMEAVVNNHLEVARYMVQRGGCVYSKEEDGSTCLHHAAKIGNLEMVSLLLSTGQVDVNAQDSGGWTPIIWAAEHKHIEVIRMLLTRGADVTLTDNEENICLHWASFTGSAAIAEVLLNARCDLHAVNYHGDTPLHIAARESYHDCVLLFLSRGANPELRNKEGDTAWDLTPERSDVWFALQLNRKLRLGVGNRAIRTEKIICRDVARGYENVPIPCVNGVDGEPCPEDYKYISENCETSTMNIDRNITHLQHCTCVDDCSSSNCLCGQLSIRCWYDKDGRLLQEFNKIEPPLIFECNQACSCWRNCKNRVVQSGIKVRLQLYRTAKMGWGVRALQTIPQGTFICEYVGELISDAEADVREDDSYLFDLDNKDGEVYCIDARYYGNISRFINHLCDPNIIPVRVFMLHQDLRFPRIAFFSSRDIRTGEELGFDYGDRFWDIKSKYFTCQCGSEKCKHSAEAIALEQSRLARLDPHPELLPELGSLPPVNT

Row | SMILES | Potency | activity, negative = inhibition
1 | Cc1cccc(-c2nc(S(=O)(=O)c3ccccc3)c(N3CCN(c4ccccc4)CC3)o2)c1 | inconclusive: 3.55 µM [inhibitor, partial curve, poor fit] | –
2 | CCc1ccc(NC(=O)C(=O)NCCc2sc(-c3ccc(C)cc3)nc2C)cc1 | – | inactive: 8.45%
3 | O=C(CSc1nc2c(c(=O)[nH]1)CCC2)Nc1cc(C(F)(F)F)ccc1Cl | inconclusive: 12.6 µM [inhibitor, partial curve, poor fit] | –
4 | Cc1cc(C)cc(OCC(=O)OC(C)C(=O)Nc2c(C)n(C)n(-c3ccccc3)c2=O)c1 (stereo not given) | inconclusive: 50.1 µM [inhibitor, partial curve] | –
5 | COc1ccc(CN2CCNC(=O)C2CC(=O)NC2CCCC2)c(OC)c1 (stereo not given) | – | inactive: -21% [at 102 µM]
6 | Cc1c(Br)c([N+](=O)[O-])nn1CC(=O)N1CCc2ccccc2C1 | inconclusive: 89.1 µM [inhibitor, single point] | –
7 | COc1ccc(NCc2cccn2-c2nnc(N3CCC(C)CC3)s2)c(OC)c1 | active: 5.62 µM | –
8 | CCN(CCC(=O)O)c1ccccc1 | inconclusive: 1.78 µM [inhibitor, partial curve, poor fit] | –
9 | COc1ccc(C(=O)N/C(=C\c2ccc3c(c2)OCO3)C(=O)Nc2cccc(C(=O)O)c2)cc1 | inconclusive: 39.8 µM [inhibitor, partial curve, poor fit] | –
10 | CSc1ccccc1C(=O)Nc1cc(C)ccc1C | active: 39.8 µM | –
11 | O=C1c2ccccc2C(=O)N1CCCCN(C(=O)c1ccco1)c1ccc(Cl)cc1 | inconclusive: 89.1 µM [inhibitor, single point] | –
12 | O=C(Nc1nccs1)c1cc(Cl)ccc1[N+](=O)[O-] | – | inactive: -8.48%
13 | Cc1cc(SCC(=O)c2cccs2)nc2ccccc12 | – | inactive: 85.7%
14 | CC(c1nnc(Sc2nnnn2-c2ccccc2)n1-c1ccc(F)cc1)N(C)C (stereo not given) | inconclusive: 89.1 µM [inhibitor, partial curve, poor fit] | –
15 | Cn1cccc1CC(=O)NNC(=O)Nc1cccc(Cl)c1 | inconclusive: 89.1 µM [inhibitor, single point] | –
16 | O=C(Nc1ccc2ccccc2c1)c1cn(-c2ccccc2)nc1-c1cccs1 | – | inactive: 14.1% [at 0.501 µM]
17 | Cc1ccc(C(=O)c2cn(Cc3ccccc3)c3cc4c(cc3c2=O)OCCO4)cc1 | – | inactive: -44.5%
18 | CSc1ccc(CN2CCCN(C)CC2)cc1 | active: 10 µM | –
19 | COc1c(Cl)cc(Cl)cc1C(=O)Nc1cccc2cccnc12 | – | inactive: 56.1%
20 | O=C(NCc1ccco1)c1ccc(Cl)nc1 | inconclusive: 50.1 µM [inhibitor, partial curve, poor fit] | –
